Results as given in the supplement of paper PMC10369915.
This is one part of the list. Cut-off read from the data, not from the text of the source: active = 3.2 or more and inactive = the rest. Most of these values are background signal.

Columns and labels:
Experiment in all cases: enrichment score (SH2-bound / input frequency) (ratio); bacterial display of known human phosphotyrosine sites (pTyr-Var adds point mutants) read by sequencing; higher = stronger binding; tyrosines were phosphorylated by kinases first
Details in all cases: peptide library: pTyr-Var
SHP2 C-SH2 domain E139D = target: SHP2 C-SH2 domain E139D
[1] = target: SHP2 C-SH2 domain wild-type
SHP2 N-SH2 domain L43F = target: SHP2 N-SH2 domain L43F
SHP2 N-SH2 domain T42A = target: SHP2 N-SH2 domain T42A
SHP2 N-SH2 domain T52S = target: SHP2 N-SH2 domain T52S
[2] = target: SHP2 N-SH2 domain wild-type

Measured: enrichment score
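Note: displayed peptides selected on beads carrying the immobilized SH2 domain, with library peptides lacking any tyrosine serving as negative controls.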

VNYQPYRKHKY [TEX37_Y28_D24N]
inactive: SHP2 C-SH2 domain E139D 0.197 | [1] 0.22 | SHP2 N-SH2 domain L43F 0.426 | SHP2 N-SH2 domain T42A 0.341 | SHP2 N-SH2 domain T52S 0.173 | [2] 0.353

VNFQPYRKHKF [TEX37_Y28_D24N_YF]
inactive: SHP2 C-SH2 domain E139D 0.29 | [1] 0.288 | SHP2 N-SH2 domain L43F 0.388 | SHP2 N-SH2 domain T42A 0.4 | SHP2 N-SH2 domain T52S 0.34 | [2] 0.363

HLQQSYLPRGT [TEX45_Y396]
inactive: SHP2 C-SH2 domain E139D 1.05 | [1] 0.784 | SHP2 N-SH2 domain L43F 0.727 | SHP2 N-SH2 domain T42A 0.851 | SHP2 N-SH2 domain T52S 1.17 | [2] 0.77

LQRCKYSHMEP [TEX45_Y434]
inactive: SHP2 C-SH2 domain E139D 1.56 | [1] 1.37 | SHP2 N-SH2 domain L43F 1.27 | SHP2 N-SH2 domain T42A 1.16 | SHP2 N-SH2 domain T52S 0.959 | [2] 0.875

LQRCKNSHMEP [TEX45_Y434_Y434N]
inactive: SHP2 C-SH2 domain E139D 1.08 | [1] 2.36 | SHP2 N-SH2 domain L43F 1.41 | SHP2 N-SH2 domain T42A 1.03 | SHP2 N-SH2 domain T52S 1.05 | [2] 1.47

HDRNTYEKFLG [TF_Y666_YF]
inactive: SHP2 C-SH2 domain E139D 0.769 | [1] 0.883 | SHP2 N-SH2 domain L43F 0.747 | SHP2 N-SH2 domain T42A 0.79 | SHP2 N-SH2 domain T52S 0.596 | [2] 0.845

NTYEKYLEEEY [TF_Y669_G671E]
inactive: SHP2 C-SH2 domain E139D 0.671 | [1] 0.804 | SHP2 N-SH2 domain L43F 0.797 | SHP2 N-SH2 domain T42A 0.702 | SHP2 N-SH2 domain T52S 0.728 | [2] 0.82

NTFEKYLEEEF [TF_Y669_G671E_YF]
inactive: SHP2 C-SH2 domain E139D 1.04 | [1] 0.916 | SHP2 N-SH2 domain L43F 1.03 | SHP2 N-SH2 domain T42A 0.861 | SHP2 N-SH2 domain T52S 0.969 | [2] 1.06

NTFEKYLGEEF [TF_Y669_YF]
inactive: SHP2 C-SH2 domain E139D 1.3 | [1] 1.21 | SHP2 N-SH2 domain L43F 1.01 | SHP2 N-SH2 domain T42A 1.33 | SHP2 N-SH2 domain T52S 1.1 | [2] 1.16

YLEEEYVKAVG [TF_Y674_G671E]
inactive: SHP2 C-SH2 domain E139D 0.689 | [1] 0.778 | SHP2 N-SH2 domain L43F 0.831 | SHP2 N-SH2 domain T42A 0.988 | SHP2 N-SH2 domain T52S 0.768 | [2] 1.12

SSQTVYQRVEG [TFR2_Y23]
inactive: SHP2 C-SH2 domain E139D 0.56 | [1] 1.1 | SHP2 N-SH2 domain L43F 0.69 | SHP2 N-SH2 domain T42A 0.699 | SHP2 N-SH2 domain T52S 0.528 | [2] 0.739

PEVSGYCHYAD [TG_Y234_C237Y]
inactive: SHP2 C-SH2 domain E139D 0.663 | [1] 0.863 | SHP2 N-SH2 domain L43F 0.815 | SHP2 N-SH2 domain T42A 0.79 | SHP2 N-SH2 domain T52S 0.75 | [2] 0.864

PEVSGYCHFAD [TG_Y234_C237Y_YF]
inactive: SHP2 C-SH2 domain E139D 1.23 | [1] 1.48 | SHP2 N-SH2 domain L43F 1.08 | SHP2 N-SH2 domain T42A 0.894 | SHP2 N-SH2 domain T52S 1.12 | [2] 1.69

TDDMRYPMKSE [TGDS_Y302_N298D]
inactive: SHP2 C-SH2 domain E139D 0.528 | [1] 0.44 | SHP2 N-SH2 domain L43F 0.539 | SHP2 N-SH2 domain T42A 0.602 | SHP2 N-SH2 domain T52S 0.528 | [2] 0.578

NREGVYTVFAP [TGFBI_Y537]
inactive: SHP2 C-SH2 domain E139D 0.788 | [1] 0.884 | SHP2 N-SH2 domain L43F 0.954 | SHP2 N-SH2 domain T42A 0.772 | SHP2 N-SH2 domain T52S 0.864 | [2] 0.891

NREGVYTVSAP [TGFBI_Y537_F540S]
inactive: SHP2 C-SH2 domain E139D 0.623 | [1] 0.596 | SHP2 N-SH2 domain L43F 0.652 | SHP2 N-SH2 domain T42A 0.601 | SHP2 N-SH2 domain T52S 0.766 | [2] 0.678

GNLQENLTRHV [TGFBR2_Y336_Y336N]
inactive: SHP2 C-SH2 domain E139D 0.773 | [1] 0.649 | SHP2 N-SH2 domain L43F 0.665 | SHP2 N-SH2 domain T42A 0.684 | SHP2 N-SH2 domain T52S 0.621 | [2] 0.826

TNEYEYDELIV [TGM1_Y136_D132N]
inactive: SHP2 C-SH2 domain E139D 0.622 | [1] 0.478 | SHP2 N-SH2 domain L43F 0.663 | SHP2 N-SH2 domain T42A 0.464 | SHP2 N-SH2 domain T52S 0.459 | [2] 0.532

TNEFEYDELIV [TGM1_Y136_D132N_YF]
inactive: SHP2 C-SH2 domain E139D 0.434 | [1] 0.912 | SHP2 N-SH2 domain L43F 0.634 | SHP2 N-SH2 domain T42A 0.646 | SHP2 N-SH2 domain T52S 0.531 | [2] 0.963

DWQQEYVLNES [TGM1_Y267_R264Q]
inactive: SHP2 C-SH2 domain E139D 0.89 | [1] 0.806 | SHP2 N-SH2 domain L43F 0.714 | SHP2 N-SH2 domain T42A 0.686 | SHP2 N-SH2 domain T52S 0.888 | [2] 1.05

DWWQEYVLNES [TGM1_Y267_R264W]
inactive: SHP2 C-SH2 domain E139D 1.98 | [1] 2.32 | SHP2 N-SH2 domain L43F 1.99 | SHP2 N-SH2 domain T42A 2.56 | SHP2 N-SH2 domain T52S 2.13 | [2] 2.02

DWRQEYVLNEP [TGM1_Y267_S272P]
inactive: SHP2 C-SH2 domain E139D 0.793 | [1] 0.827 | SHP2 N-SH2 domain L43F 0.823 | SHP2 N-SH2 domain T42A 0.683 | SHP2 N-SH2 domain T52S 0.732 | [2] 0.794

RRGMPYGGRGD [TGM1_Y312]
inactive: SHP2 C-SH2 domain E139D 0.19 | [1] 0.359 | SHP2 N-SH2 domain L43F 0.292 | SHP2 N-SH2 domain T42A 0.318 | SHP2 N-SH2 domain T52S 0.263 | [2] 0.277

EILLSYPRTGF [TGM1_Y365_L366P_YF]
inactive: SHP2 C-SH2 domain E139D 1.18 | [1] 0.972 | SHP2 N-SH2 domain L43F 1.08 | SHP2 N-SH2 domain T42A 1.05 | SHP2 N-SH2 domain T52S 1.07 | [2] 0.984

EILLSDLRTGY [TGM1_Y365_Y365D]
inactive: SHP2 C-SH2 domain E139D 0.945 | [1] 0.789 | SHP2 N-SH2 domain L43F 0.821 | SHP2 N-SH2 domain T42A 0.826 | SHP2 N-SH2 domain T52S 0.865 | [2] 1.02

EILLSYLRTGF [TGM1_Y365_YF]
inactive: SHP2 C-SH2 domain E139D 1.32 | [1] 1.1 | SHP2 N-SH2 domain L43F 1.04 | SHP2 N-SH2 domain T42A 1.1 | SHP2 N-SH2 domain T52S 1.24 | [2] 1.47

YLRTGYSVPYG [TGM1_Y370]
inactive: SHP2 C-SH2 domain E139D 0.933 | [1] 1.43 | SHP2 N-SH2 domain L43F 0.976 | SHP2 N-SH2 domain T42A 1.42 | SHP2 N-SH2 domain T52S 1.04 | [2] 0.913

YPRTGYSVPYG [TGM1_Y370_L366P]
inactive: SHP2 C-SH2 domain E139D 0.928 | [1] 0.867 | SHP2 N-SH2 domain L43F 1.03 | SHP2 N-SH2 domain T42A 0.883 | SHP2 N-SH2 domain T52S 0.915 | [2] 1.06

YLRTGYSIPYG [TGM1_Y370_V372I]
inactive: SHP2 C-SH2 domain E139D 1.17 | [1] 1.7 | SHP2 N-SH2 domain L43F 1.32 | SHP2 N-SH2 domain T42A 2.66 | SHP2 N-SH2 domain T52S 1.42 | [2] 1.25

DLRTGYSVPYG [TGM1_Y370_Y365D]
inactive: SHP2 C-SH2 domain E139D 0.939 | [1] 1.03 | SHP2 N-SH2 domain L43F 0.874 | SHP2 N-SH2 domain T42A 0.913 | SHP2 N-SH2 domain T52S 0.711 | [2] 0.912

TFQFKYPEGSS [TGM4_Y440_E437Q_YF]
inactive: SHP2 C-SH2 domain E139D 0.967 | [1] 0.696 | SHP2 N-SH2 domain L43F 1.13 | SHP2 N-SH2 domain T42A 1.1 | SHP2 N-SH2 domain T52S 0.735 | [2] 0.8

TFEFKYPEGSS [TGM4_Y440_YF]
inactive: SHP2 C-SH2 domain E139D 0.982 | [1] 0.729 | SHP2 N-SH2 domain L43F 0.786 | SHP2 N-SH2 domain T42A 0.672 | SHP2 N-SH2 domain T52S 0.955 | [2] 0.797

FSDQVYRQRRK [TH_Y230]
inactive: SHP2 C-SH2 domain E139D 0.226 | [1] 0.278 | SHP2 N-SH2 domain L43F 0.233 | SHP2 N-SH2 domain T42A 0.267 | SHP2 N-SH2 domain T52S 0.215 | [2] 0.211

REVKAYGAGLL [TH_Y419_G414R]
inactive: SHP2 C-SH2 domain E139D 0.638 | [1] 0.681 | SHP2 N-SH2 domain L43F 0.645 | SHP2 N-SH2 domain T42A 0.662 | SHP2 N-SH2 domain T52S 0.63 | [2] 0.718

SSQVLYKLEQS [THADA_Y701]
inactive: SHP2 C-SH2 domain E139D 1.31 | [1] 0.823 | SHP2 N-SH2 domain L43F 0.877 | SHP2 N-SH2 domain T42A 0.756 | SHP2 N-SH2 domain T52S 0.796 | [2] 1.04

GCKNRYDKDKP [THAP1_Y14]
inactive: SHP2 C-SH2 domain E139D 1.41 | [1] 1.16 | SHP2 N-SH2 domain L43F 1.27 | SHP2 N-SH2 domain T42A 1.1 | SHP2 N-SH2 domain T52S 1.94 | [2] 0.941

GCKNRYDEDKP [THAP1_Y14_K16E]
inactive: SHP2 C-SH2 domain E139D 0.379 | [1] 0.502 | SHP2 N-SH2 domain L43F 0.492 | SHP2 N-SH2 domain T42A 0.428 | SHP2 N-SH2 domain T52S 0.497 | [2] 0.525
